The whole screen tested about 310,000 compounds, of which about 2,200 (0.71%) showed an effect of 50% or more. The effect is printed as a negative number. This is one part of the list.
molecular target: human ether-à-go-go-related gene (hERG) potassium channel (human, UniProt Q12809); assay: primary screen, population patch clamp on CHO cells stably expressing hERG
Sequence (Q12809 whole entry, looked up): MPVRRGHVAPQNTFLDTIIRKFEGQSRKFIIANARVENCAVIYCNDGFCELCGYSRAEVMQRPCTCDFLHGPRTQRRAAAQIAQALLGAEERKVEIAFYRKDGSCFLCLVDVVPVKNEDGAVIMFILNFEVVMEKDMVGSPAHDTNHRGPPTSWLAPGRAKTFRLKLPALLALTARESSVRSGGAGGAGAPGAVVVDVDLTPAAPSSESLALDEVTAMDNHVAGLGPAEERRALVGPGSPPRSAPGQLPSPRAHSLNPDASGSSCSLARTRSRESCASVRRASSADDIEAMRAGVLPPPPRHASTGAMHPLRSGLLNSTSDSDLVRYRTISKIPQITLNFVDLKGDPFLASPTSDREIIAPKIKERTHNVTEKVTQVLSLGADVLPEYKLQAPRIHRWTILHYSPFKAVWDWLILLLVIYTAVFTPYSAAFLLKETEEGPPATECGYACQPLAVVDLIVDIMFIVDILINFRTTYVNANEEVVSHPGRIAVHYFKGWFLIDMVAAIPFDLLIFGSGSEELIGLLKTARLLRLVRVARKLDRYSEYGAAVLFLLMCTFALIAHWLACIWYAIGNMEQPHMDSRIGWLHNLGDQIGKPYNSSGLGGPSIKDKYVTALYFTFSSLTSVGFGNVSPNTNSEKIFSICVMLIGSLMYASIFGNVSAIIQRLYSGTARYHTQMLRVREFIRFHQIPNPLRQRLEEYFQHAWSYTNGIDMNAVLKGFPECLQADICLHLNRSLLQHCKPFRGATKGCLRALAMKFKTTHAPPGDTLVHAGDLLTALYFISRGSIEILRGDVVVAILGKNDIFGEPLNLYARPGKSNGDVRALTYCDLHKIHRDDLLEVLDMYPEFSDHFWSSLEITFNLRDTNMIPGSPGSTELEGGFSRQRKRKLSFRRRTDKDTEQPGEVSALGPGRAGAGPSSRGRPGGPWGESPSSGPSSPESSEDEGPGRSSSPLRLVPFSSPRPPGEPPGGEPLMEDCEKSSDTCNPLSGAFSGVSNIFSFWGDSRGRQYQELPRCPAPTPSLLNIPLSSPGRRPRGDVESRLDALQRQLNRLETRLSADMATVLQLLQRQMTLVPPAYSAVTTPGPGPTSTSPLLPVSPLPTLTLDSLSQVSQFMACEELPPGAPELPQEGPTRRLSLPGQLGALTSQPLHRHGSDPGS

| SMILES | hERG current change (%, negative = inhibition) at 1uM [%] |
| --- | --- |
| CCOC(=O)/C=C/c1nc(C(=O)OCC)c(C)c(=O)[nH]1 | 20.1 |
| CCC(C)N1C(=O)CCC1C(=O)NCCc1ccc(Cl)cc1 (centres unmarked) | 9.37 |
| Cc1onc(-c2ccccc2)c1C(=O)NC(C)c1ccccc1 (centres unmarked) | 11.4 |
| Cc1ccc(C)c(N2CC(O)(c3cccs3)[N+]3=C2CCCC3)c1.[Br-] (centres unmarked) | 6.03 |
| CCOC(=O)C1(Cc2ccc(OC)cc2)CCN(C(=O)CCc2cccnc2)CC1 | 2.84 |
| O=C(Cc1ccccc1)NCC(=O)OCC(=O)c1cccc([N+](=O)[O-])c1 | 7.87 |
| CN1CCN(C(=O)C2=C[C@@H](C3CCCCC3)C[C@@H](OCCCCO)O2)CC1 | 6.72 |
| Cc1ccc(CN(C(=O)c2ccco2)C(C(=O)NC2CCCC2)c2cccnc2)cc1 (centres unmarked) | 10.4 |
| Cn1c(Cn2cnc(Cl)c2Cl)nc2ccccc21 | -2.96 |
| CC(=O)Nc1cccc(NC(=O)c2cc(-c3cccnc3)nc3ccc(Cl)cc23)c1 | 5.96 |
| COc1ccc(OC)c(NC(=O)COC(=O)/C=C/c2ccc(Cl)cc2)c1 | -1.76 |
| COc1ccc(SC[C@H](Cc2ccccc2)N2CC[C@@H](C(C)(C)C)CCC2=O)cc1 | 16.5 |
| COC(=O)CNC(=O)COC(=O)/C=C/c1cccs1 | 10.4 |
| COc1c(C)cccc1C(=O)NC(=S)Nc1ccccc1N1CCCC1 | 18.6 |
| CCc1ccc(NC(=O)C2CCN(S(=O)(=O)c3cccs3)CC2)cc1 | -30.6 |
| CC(C)(C)NC(=O)C(c1ccccc1)N(C(=O)c1ccco1)C1CC1 (centres unmarked) | -1.51 |
| O=C(COc1ccc(S(=O)(=O)N2CCCCC2)cc1)N1CCOCC1 | 10.3 |
| CC(=O)N1CCN(C2=NC(=O)/C(=C/c3ccc(OS(=O)(=O)c4ccccc4)cc3)S2)CC1 | -3.09 |
| O=C(CN1C(=O)NC(Cc2c[nH]c3ccccc23)C1=O)Nc1cccc(S(=O)(=O)N2CCCC2)c1 (centres unmarked) | 11.6 |

| SMILES | hERG current change (%, negative = inhibition) at 1uM [%] |
| --- | --- |
| CC1Cc2ccccc2N1C(=O)c1cnsn1 (centres unmarked) | 13.6 |
| CCCNC(=O)Cn1cnc2sc(C(=O)NCCN(CC)CC)c(C)c2c1=O | 6.25 |
| CCC(=O)OCCn1c(=O)c2ccccc2c2ccccc2c1=O | 1.64 |
| CCc1nn2c(=O)cc(CSCC(=O)Nc3ccccc3F)nc2s1 | 9.69 |
| O=C(NCc1ccc(N2CCCC2=O)cc1)c1cc(COc2c(F)cccc2F)on1 | 8.5 |
| Cc1cccc(NC(=S)Nn2cnnc2)c1C | 10.9 |
| CCC(=O)c1ccc(OCC(=O)N(Cc2nnc(-c3ccccc3Cl)o2)C2CC2)cc1 | -20.1 |
| COC(=O)C1=C(c2ccccc2)C[C@@H]2CC[C@H]1N2C(=O)N1CCCC1 | 12.1 |
| Cn1c(O)c(C=NCCN2CCN(C(=O)c3ccccc3)CC2)c(=O)n(C)c1=O | 11.7 |
| Cc1nnc(SCc2cc(=O)[nH]c(N3CCN(C)CC3)n2)s1 | 1.81 |
| COc1ccc(OCc2nnc(SCC(=O)N3CCOCC3)o2)cc1 | 13.6 |
| O=S(=O)(NN1CCOCC1)c1ccc(Cl)s1 | 12.4 |
| CC(C)(C)CN1CCNC(=O)C1CC(=O)NCCc1ccccc1C(F)(F)F (centres unmarked) | 4.28 |
| CC(C)CN1C(=O)c2ccc(NC(=O)c3cccs3)cc2C1=O | -0.839 |
| CC(=O)Nc1cccc(NC(=O)CSc2ccc(C(F)(F)F)cc2[N+](=O)[O-])c1 | 0.173 |
| O=C(NCCOc1nc(N2CCCCC2)nc(N2CCOCC2)n1)Nc1ccccc1 | 5.87 |
| CCCSc1ccc(C(=O)Nc2ccc(Cl)cc2)cn1 | 12.7 |
| Cn1ncn2c(=O)c3c(nc12)-c1ccccc1CC31CCCC1 | 8.34 |
| COc1ccc(-c2ccc(SCC(=O)c3ccccc3)nn2)cc1OC | 5.96 |

| SMILES | hERG current change (%, negative = inhibition) at 1uM [%] |
| --- | --- |
| Cc1cccc(NC(=S)NNc2ncc(C(F)(F)F)cc2Cl)c1 | 12.9 |
| Cc1c(C)n(-c2ccccc2)c2ncnc(NCCCN(C)C)c12 | 6.45 |
| FC(F)(F)c1cccc(NC(=S)NCC2COc3ccccc3O2)c1 (centres unmarked) | 0.938 |
| CCOc1ccc(N(CC(=O)Nc2cccc(N(C)S(C)(=O)=O)c2)S(=O)(=O)c2ccccc2)cc1 | 8.61 |
| NS(=O)(=O)c1cccc(NC(=O)CC2(CC(=O)O)CCCC2)c1 | 26.1 |
| Cc1oc(C(=O)O)cc1COc1ccc2c(C)cc(=O)oc2c1 | 3.18 |
| CCOc1ccc(C(=O)NCC(=O)Nc2ccc(N3CCOCC3)cc2)cc1OCC | 3.18 |
| CCn1cc(/C=C(\NC(=O)c2ccccc2Cl)C(=O)NCCN2CCOCC2)c2ccccc21 | 5.13 |
| Cc1ccc(S(=O)(=O)N2CCN(C(=O)CCC(=O)NCCc3ccc(F)cc3)CC2)cc1 | -1.58 |
| NNC(=S)Nc1cccc(-c2n[nH]c(=S)o2)c1 | 6.93 |
| O=[N+]([O-])c1cc([N+](=O)[O-])c(Oc2cccc(Cl)c2Cl)cc1NN1CCCCC1 | 5.15 |
| CN(/N=C/c1cc([N+](=O)[O-])ccc1O)c1ccccc1 | 9.83 |
| COc1ccc(-n2c(-c3ccco3)n[nH]c2=S)cc1 | 11.5 |
| Cc1ccc(OCc2nnc(SCC(=O)CC(=O)Nc3ccccc3)o2)cc1 | 11 |
| COCCCNC(=O)c1cc2cc3cc(OC)ccc3nc2o1 | -8.97 |
| CCS(=O)(=O)n1nc(-c2ccccc2)cc1N | 13.8 |
| CC1(C)CC(=O)c2cnc(NC3CC3)nc2C1 | 9.57 |
| CCOc1ccc(NS(=O)(=O)c2ccc(Cl)c(C(=O)N(C)Cc3cccnc3)c2)cc1 | 4.62 |

Reference: publication PMC4336329 (PLoS ONE, 2015)
